Structures are written as SMILES. This is one part of the list.

Here are results for 25 compounds from the antibiotic and cytotoxicity screens of Wong et al. (2023).

In one experiment the test system is HSkMC. Description: cytotoxicity call (relative viability < 0.9). The following applies: 10 µM.
A further experiment concerns HepG2. Description: cytotoxicity call (relative viability < 0.9). As to conditions: 10 µM.
In another experiment the test system is S. aureus RN4220. Description: growth inhibition call (relative growth <= 0.2). The following applies: 50 µM.

For the compound `C[C@@H]1CN([C@H](C)CO)C(=O)c2cc(NC(=O)Cn3cnnn3)ccc2O[C@H]1CN(C)C(=O)NC1CCCCC1`, the cytotoxicity call in the experiment with HSkMC and in the experiment with HepG2 was “inactive” each time. In addition, the growth inhibition call in the experiment with S. aureus RN4220 is “inactive”.
On to `COc1ccc(C#Cc2cnc3c(c2)C(=O)N([C@H](C)CO)C[C@@H](C)[C@@H](CN(C)C(=O)CC2CC2)O3)cc1`, for which the cytotoxicity call in the experiment on HSkMC and with HepG2 was “inactive” throughout. Further, the growth inhibition call with S. aureus RN4220 is “inactive”.
In the case of `O=C(/C=C/c1ccc(O)c(O)c1)O[C@@H]1C[C@](O)(C(=O)O)C[C@@H](OC(=O)/C=C/c2ccc(O)c(O)c2)[C@H]1O`, the cytotoxicity call in the experiment with HSkMC and in the experiment with HepG2 was “inactive” throughout. Further, the growth inhibition call in the experiment on S. aureus RN4220 is “inactive”.
On to `C[C@@H]1CN([C@@H](C)CO)C(=O)c2cc(NC(=O)Nc3ccccc3)ccc2O[C@@H](C)CCCCO[C@@H]1CN(C)Cc1ccc(C(F)(F)F)cc1`, for which the cytotoxicity call in the experiment on HSkMC is “inactive”. Further, the cytotoxicity call in the experiment on HepG2 was “active”. For the same compound, the growth inhibition call with S. aureus RN4220 was “inactive”.
Take `C[C@@H]1CCCCO[C@@H](CN(C)S(=O)(=O)c2cn(C)cn2)[C@@H](C)CN([C@H](C)CO)C(=O)c2cc(NS(=O)(=O)c3ccc(F)cc3)ccc2O1`: the cytotoxicity call with HSkMC and in the experiment on HepG2 was “inactive” throughout. Further, the growth inhibition call with S. aureus RN4220 is “inactive”.
On to `Cc1ccc(S(=O)(=O)Nc2ccc3c(c2)C(=O)N([C@@H](C)CO)C[C@@H](C)[C@@H](CN(C)Cc2ccncc2)OCCCC[C@@H](C)O3)cc1`, for which the cytotoxicity call with HSkMC and in the experiment with HepG2 was “inactive” in each case. In addition, in the experiment with S. aureus RN4220, the growth inhibition call was “inactive”.
As to `Cn1nccc1N`, the cytotoxicity call in the experiment with HSkMC and in the experiment with HepG2 was “inactive” throughout. In addition, the growth inhibition call with S. aureus RN4220 was “inactive”.
With `O=C(/C=C/c1ccc(O)c(O)c1)O[C@H]1[C@H](O)C[C@](O)(C(=O)O)C[C@H]1OC(=O)/C=C/c1ccc(O)c(O)c1`, the cytotoxicity call in the experiment on HSkMC and with HepG2 was “inactive” in each case. Moreover, the growth inhibition call with S. aureus RN4220 was “inactive”.
`CC(C)=CCC/C(C)=C/C=O`: the cytotoxicity call in the experiment with HSkMC and in the experiment on HepG2 was “inactive” each time. Moreover, the growth inhibition call in the experiment on S. aureus RN4220 was “inactive”.
Consider `O=C(C[C@@H]1CC[C@H]2[C@@H](COC[C@@H](O)CN2C(=O)c2ccc3c(c2)OCO3)O1)NCCN1CCCCC1`, for which, in the experiment with HSkMC, the cytotoxicity call is “inactive”. Moreover, in the experiment on HepG2, the cytotoxicity call was “active”. The growth inhibition call in the experiment with S. aureus RN4220 is “inactive”.
Take `CC(=O)N1CCN(CCOc2ccc(C3CCN(C4=Nn5c(nnc5C(F)(F)F)CC4)CC3)cc2)CC1`: the cytotoxicity call in the experiment with HSkMC was “inactive”. Besides, in the experiment with HepG2, the cytotoxicity call was “active”. Moreover, the growth inhibition call in the experiment on S. aureus RN4220 was “inactive”.
With `COc1ccc(S(=O)(=O)N(C)C[C@H]2Oc3ccc(NS(=O)(=O)c4cn(C)cn4)cc3CC(=O)N([C@H](C)CO)C[C@@H]2C)cc1`, the cytotoxicity call with HSkMC and with HepG2 was “inactive” each time. Also, the growth inhibition call in the experiment on S. aureus RN4220 was “inactive”.
Consider `C[C@H](CO)N1C[C@H](C)[C@@H](CN(C)Cc2cncnc2)Oc2cc(C3=CCCCC3)ccc2S1(=O)=O`, for which the cytotoxicity call in the experiment on HSkMC and in the experiment with HepG2 was “inactive” in each case. The growth inhibition call in the experiment with S. aureus RN4220 is “inactive”.
`CC(C)CC#Cc1cnc2c(c1)C(=O)N([C@H](C)CO)C[C@H](C)[C@H](CN(C)S(=O)(=O)c1cn(C)cn1)O2`: the cytotoxicity call in the experiment on HSkMC and in the experiment with HepG2 was “inactive” throughout. The growth inhibition call in the experiment on S. aureus RN4220 was “inactive”.
With `Cc1noc(C)c1NC(=O)Nc1cccc2c1O[C@@H](CN(C)Cc1ccc(-c3ccccc3)cc1)[C@@H](C)CN([C@H](C)CO)C2=O`, the cytotoxicity call with HSkMC and with HepG2 was “inactive” throughout. Moreover, the growth inhibition call with S. aureus RN4220 was “inactive”.
In the case of `CN(C)CCCCCCNC(=O)[C@@H]1C[C@@H]2C(=O)N[C@@H](CCCC[N+](C)(C)C)C(=O)N2[C@@H]1c1cccc(OCCO)c1`, the cytotoxicity call in the experiment with HSkMC and with HepG2 was “inactive” throughout. In the experiment on S. aureus RN4220, the growth inhibition call was “inactive”.
In the case of `C[C@@H]1CCCCO[C@H](CN(C)C(=O)C2CCCCC2)[C@@H](C)CN([C@@H](C)CO)C(=O)c2cc(NS(=O)(=O)c3ccccc3)ccc2O1`, the cytotoxicity call in the experiment with HSkMC and with HepG2 was “inactive” in each case. For the same compound, the growth inhibition call in the experiment with S. aureus RN4220 was “inactive”.
On to `COc1ccc(S(=O)(=O)Nc2ccc3c(c2)C(=O)N([C@H](C)CO)C[C@@H](C)[C@H](CN(C)C(=O)C2CCCCC2)OCCCC[C@@H](C)O3)cc1`, for which the cytotoxicity call in the experiment on HSkMC and with HepG2 was “inactive” in each case. Besides, the growth inhibition call in the experiment on S. aureus RN4220 was “inactive”.
In the case of `COc1ccc2cc3[n+](cc2c1OC)CCc1cc2c(cc1-3)OCO2.[Cl-]`, the cytotoxicity call in the experiment on HSkMC was “inactive”. The cytotoxicity call in the experiment with HepG2 was “active”. The growth inhibition call with S. aureus RN4220 was “inactive”.
For `CCCNc1nc(=O)c(C)n[nH]1`, the cytotoxicity call in the experiment with HSkMC and with HepG2 was “inactive” in each case. Besides, the growth inhibition call with S. aureus RN4220 was “inactive”.
Turning to `C[C@H]1CN([C@@H](C)CO)C(=O)Cc2cc(NC(=O)Cc3ccccc3)ccc2O[C@H]1CN(C)Cc1ccc(-c2ccccc2)cc1`, the cytotoxicity call with HSkMC is “inactive”. In the experiment on HepG2, the cytotoxicity call was “active”. Moreover, the growth inhibition call in the experiment with S. aureus RN4220 was “inactive”.
Turning to `Cc1noc(C)c1NC(=O)Nc1ccc2c(c1)C(=O)N([C@@H](C)CO)C[C@H](C)[C@@H](CN(C)Cc1ccc3c(c1)OCO3)OCCCC[C@@H](C)O2`, the cytotoxicity call with HSkMC and in the experiment on HepG2 was “inactive” in each case. For the same compound, the growth inhibition call with S. aureus RN4220 was “inactive”.
For the compound `CC(C)[C@@H](CO)N1C(=O)[C@@H]2[C@H]3C(=O)OCCC/C=C\[C@H]3O[C@]23C=CCN(Cn2nnc4ccccc42)C(=O)[C@@H]13`, the cytotoxicity call in the experiment with HSkMC and in the experiment with HepG2 was “inactive” in each case. Also, in the experiment on S. aureus RN4220, the growth inhibition call was “inactive”.
For `C[C@H](CO)N1C[C@H](C)[C@@H](CN(C)S(C)(=O)=O)Oc2ccc(NS(C)(=O)=O)cc2CC1=O`, the cytotoxicity call in the experiment on HSkMC (human skeletal muscle cells) and with HepG2 was “inactive” in each case. Also, the growth inhibition call in the experiment on S. aureus RN4220 is “inactive”.
As for `C[C@@H]1CN([C@@H](C)CO)C(=O)c2cccc(NS(=O)(=O)c3ccccc3)c2O[C@H]1CN(C)Cc1ccc(Oc2ccccc2)cc1`, the cytotoxicity call in the experiment with HSkMC and in the experiment with HepG2 was “inactive” in each case. The growth inhibition call with S. aureus RN4220 was “inactive”.
